Source: the supplement of paper PMC3334620
In all, about 33,000 sequences were measured (“E-score (-0.5 to 0.5)”: median about -0.016, highest 2% from about 0.32 on). The list shows a part of the results.

target: T1, Stp1 (UniProt B3LFK1); experiment: PBM E-score (8-mer binding enrichment) (E-score (-0.5 to 0.5)); higher = stronger / more preferred TF binding; most listed sequences are background and not binding sites; conditions: protein concentration: 200 nM; construct: GST-full length
T1 sequence: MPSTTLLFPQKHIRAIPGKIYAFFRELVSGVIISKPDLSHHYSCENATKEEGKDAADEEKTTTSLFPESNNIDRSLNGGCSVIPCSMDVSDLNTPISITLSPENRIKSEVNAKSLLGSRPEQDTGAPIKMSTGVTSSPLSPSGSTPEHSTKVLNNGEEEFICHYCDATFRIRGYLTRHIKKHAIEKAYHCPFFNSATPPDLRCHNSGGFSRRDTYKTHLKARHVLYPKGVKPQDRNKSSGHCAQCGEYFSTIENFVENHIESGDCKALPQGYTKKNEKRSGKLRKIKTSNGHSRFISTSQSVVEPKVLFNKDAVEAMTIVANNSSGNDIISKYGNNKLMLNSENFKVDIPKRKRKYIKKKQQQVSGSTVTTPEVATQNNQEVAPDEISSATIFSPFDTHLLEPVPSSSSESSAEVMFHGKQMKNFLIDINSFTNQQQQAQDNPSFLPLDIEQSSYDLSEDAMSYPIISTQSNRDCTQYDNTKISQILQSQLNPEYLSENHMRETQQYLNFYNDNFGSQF
Procedure, shortened: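 PURExpress in vitro transcription/translation supplied GST-tagged yeast transcription factors, either full-length or DNA-binding domain. Applied at about 100-200 nM to universal all-10-mer Agilent arrays double-stranded by primer extension, the bound protein was detected with fluorescent anti-GST. E-scores, modified Wilcoxon-Mann-Whitney statistics, were given by the Universal PBM Analysis Suite to ungapped eight-base words pooled with their reverse complements after masliner normalisation.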

Sequence	PBM E-score
CACGGGGG	-0.208
GGAATTCA	-0.0981
ACAAAACT	-0.0132
CAAAAGCG	0.139
GGCACGAA	0.389
CGTCGTAC	0.00437
ACTGGAGC	-0.132
CGACAAAC	-0.0673
AATTCAGA	-0.0484
AATTAAGT	0.131
CAGATCTG	-0.131
AGGGCTCC	-0.0621
ATCTCATG	0.0649
CCTTGTCG	0.062
GGGACATA	-0.103
ACCAGAGC	-0.0074
AATGGAAC	0.111
AAGAATAG	0.0219
AGTTGGTA	-0.0223
ACTTGGCG	-0.147
GCGACCCC	-0.105
CGAAAGCG	-0.186
AACTCAAG	0.031
AATGCCAC	0.293
ACTTGGAA	0.0328

Sequence	PBM E-score
ACGGCAAG	0.369
ATCTGGCA	0.183
CCAGACGA	-0.0954
GTCGTATA	0.109
CTACATGC	-0.0103
AAGGAGCT	-0.235
AAGAATAA	0.109
ACAATAGT	0.139
GCATTCAC	0.145
ACATCGGC	-0.0114
AACAGACG	0.0384
AAACTTCG	-0.0397
GCAAAGAC	-0.00553
GGTTCGTA	0.101
CCCTTCAC	-0.174
CTTTTGTC	0.137
TATCACAA	0.0226
GCACCATA	0.0723
CTGCCGTA	0.343
ATAGCGAT	-0.197
GGTACTCA	-0.034
GACCCTAC	-0.237
GGTCGAAA	-0.127
CGCGGTAA	0.143
AGGGCCTC	-0.252

Sequence	PBM E-score
AAGGCTGT	-0.207
ATTCGAAG	0.0185
TAGAGCAA	0.124
AGCTAAAA	-0.0484
ATGGCATG	0.22
TCTTTACA	0.121
ACAGCCTC	-0.142
CATTTTAG	0.182
CGCTCCAC	-0.0213
TATGCCGA	0.094
ATATTTCC	0.104
CCTGTCCC	-0.228
AATGGTGT	0.0274
CAGCTCAG	-0.174
TGATCGAA	0.041
GTCGGCGA	-0.0125
AGGGCGGA	-0.12
ACCAAGTG	-0.0911
AGGGACTC	-0.335
TAACGATA	0.06
CGTGTCCA	-0.0177
GATTAAAC	0.102
AGAACCTG	-0.129
ATGTCGTA	-0.147
AAGTTCGA	0.0556

Sequence	PBM E-score
ATGGAGGC	-0.236
CATACAGA	0.084
ATGCCTGC	0.157
CTACGTAA	0.156
AAATACCC	0.15
CCTATCTC	-0.0666
GACGGCTC	0.307
CTGGAGCA	-0.19
TATGGCAA	0.228
AGCGACAA	-0.105
AAGGTTTG	-0.0112
GTTTGGCA	0.0408
CTTCTGCC	0.127
AAGCTTGT	-0.0584
CGAGCTTA	-0.123
CCTGATCC	-0.191
GCCGTCAA	0.12
CTATCGAC	-0.156
AATCGGGA	-0.0757
CTCCCGTC	0.0242
ACAGTACT	-0.276
AGGGCTCA	-0.101
GCTCGGCC	-0.0984
GCAAAGCA	-0.107
CAGTATTC	0.00417

Sequence	PBM E-score
CACAATAA	0.12
CCAAGCTC	-0.115
CCTGACAG	-0.178
GCCGCACC	0.449
GCCAAACA	0.0263
TGTGCCAA	0.117
ACAAATTC	0.161
CAATCGGC	0.115
CTAGTGCA	0.0645
AGTCAACT	-0.268
GCCGAAAA	0.237
CTGTACGC	0.0513
AGGGGCTG	-0.204
ATTTCTTC	0.25
ACTCATGG	-0.23
GGCAACCA	0.0684
AGATGAAG	-0.171
GCCTGTTA	-0.111
GAGACTCA	-0.212
ATTTGGCA	0.0414
CCACCGCC	-0.0507
ACTTACTG	-0.0358
CCGTAGCC	0.0394
ACCGACCG	-0.13
AGTTCTAC	-0.0748

Sequence	PBM E-score
CAATTGAC	0.0501
CTCGAACA	-0.136
CCATTGCA	0.0123
CGGCAACG	0.368
GGCTAGAC	-0.196
CAGCTAAG	-0.153
ACAACGTG	-0.00296
CTGAAGTA	0.00744
CCAGTTAG	-0.0502
CTGCCCAG	-0.284
CTGCTTAA	-0.111
GCCGCCAC	0.0605
GGGGAGCA	-0.353
CTGCAAAG	-0.0716
AACCGGAG	0.0218
CTCCACAC	0.014
ATGGTTAG	-0.119
GCAAATCC	0.134
AGCATCCA	-0.235
CGGTAATC	-0.137
CTATCCTA	-0.0474
AGCCCCAC	-0.151
AAACTCGC	0.0541
CATCTACG	0.045
AAGAGATC	-0.108

Sequence	PBM E-score
AGGTGCTC	-0.295
CCACTTAA	0.0627
CCGCTTCC	0.0449
ACAGTTGC	-0.0462
ATTTACCA	0.0814
CAGTAACG	0.0111
TACCTCGA	-0.106
AACACAGT	-0.0465
TCCCATAA	-0.102
GCAGAGGA	-0.0854
CGTTCAAG	0.139
GGGCTGGA	-0.268
ACAGTGGC	-0.0323
AAAGCCTC	0.204
AGGGAGTC	-0.296
AAGGTCGT	-0.166
GGATACCA	-0.0967
GAGAGTAC	-0.172
GATACCGA	-0.147
GCGCCGAC	0.309
CCCTGCAC	-0.176
GCATTAGA	0.0737
